The other results are listed elsewhere or left out. Sequences were assembled here from the parent chain. Values near 0.05 are background.
B1: TEV protease; numbered along this chain (parent)
chain: MGESLFKGPRDYNPISSSICHLTNESDGHTTSLYGIGFGPFIITNKHLFRRNNGTLVVQSLHGVFKVKDTTTLQQHLVDGRDMIIIRMPKDFPPFPQKLKFREPQREERICLVTTNFQTKSMSSMVSDTSCTFPSGDGIFWKHWIQTKDGQCGSPLVSTRDGFIVGIHSASNFTNTNNYFTSVPKNFMELLTNQEAQQWVSGWRLNADSVLWGGHKVFMVKPEEPFQPVKEATQL

Variants of: B1
Assay: raw area under fraction-flipped curve 0-4 h after induction (AUC4h, not background-subtracted), DNA-recorder readout of cleavage of the substrate (dimensionless); higher = more cleavage of the substrate by the protease variant
Details: temperature: 34 °C; time window: 0-4 h after rhamnose induction
Experimental: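 In vivo DNA recorder in E. coli TOP10(DE3) ΔrhaA at 34 °C. Each TEVp single-site mutant (parent TEVp 0) is paired with a single-site variant of the 7-mer TEVs (canonical ENLYFQ|S). The substrate sits between flexible linkers in a Bxb1-sfGFP-TEVs-SsrA fusion, so cleavage stabilises Bxb1 and speeds flipping of a recombination array, read by NGS. The value is the raw area under the fraction-flipped curve over 0-4 h after rhamnose induction (AUC4h), with ≥20 reads per time point. It is not background-subtracted; inactive controls average about 0.047.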
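Further: Bxb1 expression induced with 0.2% (w/v) L-rhamnose at OD600 near 0.5, cultures sampled hourly, flipped fraction per protease–substrate barcode pair counted by paired-end Illumina sequencing.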

Variant	area with substrate ENLYAQS	area with substrate ENLYCQS	area with substrate ENLYDQS	area with substrate ENLYEQS	area with substrate ENLYGQS	area with substrate ENLYIQS	area with substrate ENLYKQS	area with substrate ENLYLQS	area with substrate ENLYMQS	area with substrate ENLYNQS	area with substrate ENLYPQS	area with substrate ENLYRQS	area with substrate ENLYVQS	area with substrate ENLYWQS	area with substrate ENLYYQS	area with substrate ENLYHQS	area with substrate ENLYQQS	area with substrate ENLYSQS	area with substrate ENLYTQS
MGESLFKGPRDYNPISSSICHLTNESDGHTTSLYGIGFGPFIITNKHLFRRNNGTLVVQSLHGVFKVKDTTTLQQHLVDGRDMIIIRMPKDFPPFPQKLKFREPQREERICLVTTNFQTKSMSSMVSDTSCTFPSGDGIFWKHWIQTKDGECGSPLVSTRDGFIVGIHSASNFTNTNNYFTSVPKNFMELLTNQEAQQWVSGWRLNADSVLWGGHKVFMVKPEEPFQPVKEATQL [Q151E]	0.0724	0.0664	0.0608	0.0728	0.0793	0.123	0.0504	0.0821	0.0952	0.0717	0.0755	0.064	0.0756	0.0686	0.0742	–	–	–	–
MGESLFKGPRDYNPISSSICHLTNESDGHTTSLYGIGFGPFIITNKHLFRRNNGTLVVQSLHGVFKVKDTTTLQQHLVDGRDMIIIRMPKDFPPFPQKLKFREPQREERICLVTTNFQTKSMSSMVSDTSCTFPSGDGIFWKHWIQTKDGQCGSPLVSTRDGFIVGIHSASNFTNTNNYFTSVPKNFMELLTNQEAQQWVSGWRLNADSVLWGGHKVFMVKPKEPFQPVKEATQL [E223K]	0.0899	–	0.0673	0.0601	0.0708	0.107	0.0515	0.1	0.0807	0.0767	0.0652	0.0655	0.135	0.0844	0.0514	0.0691	0.0675	0.0676	0.0711
MGESLFDGPRDYNPISSSICHLTNESDGHTTSLYGIGFGPFIITNKHLFRRNNGTLVVQSLHGVFKVKDTTTLQQHLVDGRDMIIIRMPKDFPPFPQKLKFREPQREERICLVTTNFQTKSMSSMVSDTSCTFPSGDGIFWKHWIQTKDGQCGSPLVSTRDGFIVGIHSASNFTNTNNYFTSVPKNFMELLTNQEAQQWVSGWRLNADSVLWGGHKVFMVKPEEPFQPVKEATQL [K7D]	0.0705	–	0.0709	–	0.0612	0.116	0.0713	–	0.0095	0.0612	0.0692	0.0739	–	0.0831	–	0.0586	0.0583	0.0692	0.0593
MGESLFKGPRDYNPISSSICHLTNESDGHTTSLYGIGFGPFIITNKHLFRRNNGTLVVQSLHGVFKVKDTTTLQQHLVDGRDMIIIRMPKDFPPFPQKLKFREPQREERICLVTTNFQTKSMSSMVSDTSCTFPSGDGIFWKHWIQTKDGQCGSPEVSTRDGFIVGIHSASNFTNTNNYFTSVPKNFMELLTNQEAQQWVSGWRLNADSVLWGGHKVFMVKPEEPFQPVKEATQL [L156E]	0.0587	0.0568	0.055	0.0509	0.0529	0.0481	0.0538	0.0495	0.0441	0.0514	0.0579	0.0511	0.055	0.0512	–	0.0486	0.0554	0.0414	0.0511
MGESLFKGPRDYNPISSSICHLTNESDGHTTSLYGIGFGPFIITNKHLFRRNNGTLVVQSLHGVFKVKDTTTLQQHLVDGRDMIIIRMPKDFPPFPQKLKFREPQREERICLVTTNFQTKSMISMVSDTSCTFPSGDGIFWKHWIQTKDGQCGSPLVSTRDGFIVGIHSASNFTNTNNYFTSVPKNFMELLTNQEAQQWVSGWRLNADSVLWGGHKVFMVKPEEPFQPVKEATQL [S123I]	0.0646	0.0808	0.0645	0.0542	0.0654	–	0.0327	–	0.11	–	0.0921	0.0664	–	0.064	0.0717	0.0761	–	0.0612	–
MGESLFKGPRDYNPISSSICHLTNESDGHTTSLYGIGFGPFFITNKHLFRRNNGTLVVQSLHGVFKVKDTTTLQQHLVDGRDMIIIRMPKDFPPFPQKLKFREPQREERICLVTTNFQTKSMSSMVSDTSCTFPSGDGIFWKHWIQTKDGQCGSPLVSTRDGFIVGIHSASNFTNTNNYFTSVPKNFMELLTNQEAQQWVSGWRLNADSVLWGGHKVFMVKPEEPFQPVKEATQL [I42F]	0.0237	0.0637	0.0463	0.058	0.0592	0.0753	0.0345	–	0.0673	0.0533	–	0.0582	0.0692	0.0674	–	0.0543	0.0504	0.0607	–
MGESLFKGPRDYNPISSSICHLTNESDGHTTSLYGIGFGPFIITNKHLFRRNNGTLVVQSLHGVFKVKDTTTLQQHLVDGRDMIIIRMPKDFPPFPQKLKFREPQREERICLVTTNFQTKSMSSMVSDTSCTFPSGDGIFWIHWIQTKDGQCGSPLVSTRDGFIVGIHSASNFTNTNNYFTSVPKNFMELLTNQEAQQWVSGWRLNADSVLWGGHKVFMVKPEEPFQPVKEATQL [K142I]	0.0558	–	–	0.0504	0.0506	0.0982	0.0636	–	0.065	0.0689	0.0567	–	–	0.0757	0.0115	0.067	0.0655	0.0625	0.061
MGESLFKGPRDYNPISSSICHLTNESDGHTTSLYGIGFGPFIITNKHLFRRNNGTLVVQSLHGVFKVKDTTTLQQHLVDGRDDIIIRMPKDFPPFPQKLKFREPQREERICLVTTNFQTKSMSSMVSDTSCTFPSGDGIFWKHWIQTKDGQCGSPLVSTRDGFIVGIHSASNFTNTNNYFTSVPKNFMELLTNQEAQQWVSGWRLNADSVLWGGHKVFMVKPEEPFQPVKEATQL [M83D]	0.0434	0.0511	0.0459	0.045	0.0447	0.0515	–	0.0601	0.0416	0.051	0.0507	0.0607	0.0521	0.0483	–	0.052	0.0586	0.0516	0.0519
MGESLFKGPRDYNPISSSICHLTNESDGHTTSLYGIGFGPFIITNKHLFRRNNGTLVVQSLHGVFKVKDTTTLQQHLVDGRDMIIIRMPKDFPPFPQKLKFREGQREERICLVTTNFQTKSMSSMVSDTSCTFPSGDGIFWKHWIQTKDGQCGSPLVSTRDGFIVGIHSASNFTNTNNYFTSVPKNFMELLTNQEAQQWVSGWRLNADSVLWGGHKVFMVKPEEPFQPVKEATQL [P104G]	0.0489	–	0.054	0.0429	–	0.0537	0.0177	–	0.0478	0.056	0.0402	0.0517	0.0505	0.0508	0.0248	0.0455	0.0448	0.0601	0.0524
